Experimental data as given in the supplement of paper PMC10369915.
This is one part of the list. No stated cut-off is given here; in the data, active = 3.2 or more and inactive = the rest. The signal is at background level for most entries.

Molecular target: SHP2 C-SH2 domain E139D
Test: enrichment score (SH2-bound / input frequency) (ratio); bacterial display of known human phosphotyrosine sites (pTyr-Var adds point mutants) read by sequencing; higher = stronger binding; tyrosines were phosphorylated by kinases first
Details: peptide library: pTyr-Var
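Further: displayed peptides selected on beads carrying the immobilized SH2 domain, with library peptides lacking any tyrosine serving as negative controls.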

Row | Binder | enrichment score
1 | DEFLEYRRIVG [FAM221A_Y20_YF] | inactive: 0.754
2 | FESPRYLQVRI [FANCA_Y488_H492R] | inactive: 1.12
3 | FGSRLYKYAFK [FANCD2_Y458_L456R] | inactive: 0.501
4 | FGSLLYKFAFK [FANCD2_Y458_YF] | inactive: 0.333
5 | SNNFIYKTLGV [FAM83B_Y639_YF] | inactive: 0.719
6 | TESNNYIYKTL [FAM83B_Y637] | inactive: 0.648
7 | LTMAPYSSVSV [FAM81A_Y24_L29V] | inactive: 0.925
8 | DEYLEYRRIVG [FAM221A_Y20] | inactive: 0.671
9 | LTMAPYSSVSL [FAM81A_Y24] | inactive: 0.873
10 | FRNSLYAPDFS [FAM92A_Y226_YF] | inactive: 1.3
11 | DLLMQHPKAQG [FAM83C_Y600_Y600H] | inactive: 0.874
12 | FQNSLYAPDYS [FAM92A_Y226_R222Q] | inactive: 0.899
13 | SNNFIYTTLGV [FAM83B_Y639_K640T_YF] | inactive: 1.03
14 | SCPANYFAFKI [FAM3D_Y65_P60S] | inactive: 1.56
15 | DEYLEHRRIVG [FAM221A_Y20_Y20H] | inactive: 0.701
16 | VPANRYDLLCL [FARSB_Y72] | inactive: 0.912
17 | FQNSLYAPDFS [FAM92A_Y226_R222Q_YF] | inactive: 1.03
18 | FESPRYLQVHI [FANCA_Y488] | inactive: 1.19
19 | SSREGYVSHHN [FAM83B_Y433] | inactive: 1.01

Molecular target: SHP2 C-SH2 domain wild-type
Test: as above
Details: peptide library: pTyr-Var

Row | Binder | enrichment score
20 | DEFLEYRRIVG [FAM221A_Y20_YF] | inactive: 0.661
21 | FESPRYLQVRI [FANCA_Y488_H492R] | inactive: 1.05
22 | FGSRLYKYAFK [FANCD2_Y458_L456R] | inactive: 0.522
23 | FGSLLYKFAFK [FANCD2_Y458_YF] | inactive: 0.749
24 | SNNFIYKTLGV [FAM83B_Y639_YF] | inactive: 0.638
25 | TESNNYIYKTL [FAM83B_Y637] | inactive: 1.03
26 | LTMAPYSSVSV [FAM81A_Y24_L29V] | inactive: 2.19
27 | DEYLEYRRIVG [FAM221A_Y20] | inactive: 0.573
28 | LTMAPYSSVSL [FAM81A_Y24] | inactive: 1.5
29 | FRNSLYAPDFS [FAM92A_Y226_YF] | inactive: 0.98
30 | DLLMQHPKAQG [FAM83C_Y600_Y600H] | inactive: 0.721
31 | FQNSLYAPDYS [FAM92A_Y226_R222Q] | inactive: 0.719
32 | SNNFIYTTLGV [FAM83B_Y639_K640T_YF] | inactive: 0.854
33 | SCPANYFAFKI [FAM3D_Y65_P60S] | inactive: 1.5
34 | DEYLEHRRIVG [FAM221A_Y20_Y20H] | inactive: 0.778
35 | VPANRYDLLCL [FARSB_Y72] | inactive: 0.839
36 | FQNSLYAPDFS [FAM92A_Y226_R222Q_YF] | inactive: 0.946
37 | FESPRYLQVHI [FANCA_Y488] | inactive: 1.3
38 | SSREGYVSHHN [FAM83B_Y433] | inactive: 0.694

Molecular target: SHP2 N-SH2 domain L43F
Test: as above
Details: peptide library: pTyr-Var

Row | Binder | enrichment score
39 | DEFLEYRRIVG [FAM221A_Y20_YF] | inactive: 0.875
40 | FESPRYLQVRI [FANCA_Y488_H492R] | inactive: 2.43
41 | FGSRLYKYAFK [FANCD2_Y458_L456R] | inactive: 0.469
42 | FGSLLYKFAFK [FANCD2_Y458_YF] | inactive: 0.395
43 | SNNFIYKTLGV [FAM83B_Y639_YF] | inactive: 0.737
44 | TESNNYIYKTL [FAM83B_Y637] | inactive: 0.468
45 | LTMAPYSSVSV [FAM81A_Y24_L29V] | inactive: 1.58
46 | DEYLEYRRIVG [FAM221A_Y20] | inactive: 0.7
47 | LTMAPYSSVSL [FAM81A_Y24] | inactive: 1.08
48 | FRNSLYAPDFS [FAM92A_Y226_YF] | inactive: 0.84
49 | DLLMQHPKAQG [FAM83C_Y600_Y600H] | inactive: 0.81
50 | FQNSLYAPDYS [FAM92A_Y226_R222Q] | inactive: 0.769
51 | SNNFIYTTLGV [FAM83B_Y639_K640T_YF] | inactive: 0.835
52 | SCPANYFAFKI [FAM3D_Y65_P60S] | inactive: 1.72
53 | DEYLEHRRIVG [FAM221A_Y20_Y20H] | inactive: 0.534
54 | VPANRYDLLCL [FARSB_Y72] | inactive: 0.886
55 | FQNSLYAPDFS [FAM92A_Y226_R222Q_YF] | inactive: 1.04
56 | FESPRYLQVHI [FANCA_Y488] | inactive: 2.83
57 | SSREGYVSHHN [FAM83B_Y433] | inactive: 0.732

Molecular target: SHP2 N-SH2 domain T42A
Test: as above
Details: peptide library: pTyr-Var

Row | Binder | enrichment score
58 | DEFLEYRRIVG [FAM221A_Y20_YF] | inactive: 0.696
59 | FESPRYLQVRI [FANCA_Y488_H492R] | active: 4.91
60 | FGSRLYKYAFK [FANCD2_Y458_L456R] | inactive: 0.438
61 | FGSLLYKFAFK [FANCD2_Y458_YF] | inactive: 0.27
62 | SNNFIYKTLGV [FAM83B_Y639_YF] | inactive: 0.686
63 | TESNNYIYKTL [FAM83B_Y637] | inactive: 0.534
64 | LTMAPYSSVSV [FAM81A_Y24_L29V] | inactive: 2.82
65 | DEYLEYRRIVG [FAM221A_Y20] | inactive: 0.57
66 | LTMAPYSSVSL [FAM81A_Y24] | inactive: 2
67 | FRNSLYAPDFS [FAM92A_Y226_YF] | inactive: 1.06
68 | DLLMQHPKAQG [FAM83C_Y600_Y600H] | inactive: 0.623
69 | FQNSLYAPDYS [FAM92A_Y226_R222Q] | inactive: 0.595
70 | SNNFIYTTLGV [FAM83B_Y639_K640T_YF] | inactive: 1.05
71 | SCPANYFAFKI [FAM3D_Y65_P60S] | inactive: 1.23
72 | DEYLEHRRIVG [FAM221A_Y20_Y20H] | inactive: 0.78
73 | VPANRYDLLCL [FARSB_Y72] | inactive: 0.695
74 | FQNSLYAPDFS [FAM92A_Y226_R222Q_YF] | inactive: 0.963
75 | FESPRYLQVHI [FANCA_Y488] | active: 5.86
76 | SSREGYVSHHN [FAM83B_Y433] | inactive: 0.655

Molecular target: SHP2 N-SH2 domain T52S
Test: as above
Details: peptide library: pTyr-Var

Row | Binder | enrichment score
77 | DEFLEYRRIVG [FAM221A_Y20_YF] | inactive: 0.672
78 | FESPRYLQVRI [FANCA_Y488_H492R] | inactive: 2.88
79 | FGSRLYKYAFK [FANCD2_Y458_L456R] | inactive: 0.508
80 | FGSLLYKFAFK [FANCD2_Y458_YF] | inactive: 0.298
81 | SNNFIYKTLGV [FAM83B_Y639_YF] | inactive: 0.574
82 | TESNNYIYKTL [FAM83B_Y637] | inactive: 0.475
83 | LTMAPYSSVSV [FAM81A_Y24_L29V] | inactive: 1.56
84 | DEYLEYRRIVG [FAM221A_Y20] | inactive: 0.694
85 | LTMAPYSSVSL [FAM81A_Y24] | inactive: 1.01
86 | FRNSLYAPDFS [FAM92A_Y226_YF] | inactive: 1.14
87 | DLLMQHPKAQG [FAM83C_Y600_Y600H] | inactive: 0.825
88 | FQNSLYAPDYS [FAM92A_Y226_R222Q] | inactive: 0.994
89 | SNNFIYTTLGV [FAM83B_Y639_K640T_YF] | inactive: 0.834
90 | SCPANYFAFKI [FAM3D_Y65_P60S] | inactive: 1.56
91 | DEYLEHRRIVG [FAM221A_Y20_Y20H] | inactive: 0.646
92 | VPANRYDLLCL [FARSB_Y72] | inactive: 0.888
93 | FQNSLYAPDFS [FAM92A_Y226_R222Q_YF] | inactive: 1.14
94 | FESPRYLQVHI [FANCA_Y488] | inactive: 3.09
95 | SSREGYVSHHN [FAM83B_Y433] | inactive: 0.783

Molecular target: SHP2 N-SH2 domain wild-type
Test: as above
Details: peptide library: pTyr-Var

Row | Binder | enrichment score
96 | DEFLEYRRIVG [FAM221A_Y20_YF] | inactive: 0.884
97 | FESPRYLQVRI [FANCA_Y488_H492R] | inactive: 1.03
98 | FGSRLYKYAFK [FANCD2_Y458_L456R] | inactive: 0.609
99 | FGSLLYKFAFK [FANCD2_Y458_YF] | inactive: 0.736
100 | SNNFIYKTLGV [FAM83B_Y639_YF] | inactive: 0.788
101 | TESNNYIYKTL [FAM83B_Y637] | inactive: 0.452
102 | LTMAPYSSVSV [FAM81A_Y24_L29V] | inactive: 0.972
103 | DEYLEYRRIVG [FAM221A_Y20] | inactive: 0.784
104 | LTMAPYSSVSL [FAM81A_Y24] | inactive: 0.74
105 | FRNSLYAPDFS [FAM92A_Y226_YF] | inactive: 1.04
106 | DLLMQHPKAQG [FAM83C_Y600_Y600H] | inactive: 0.718
107 | FQNSLYAPDYS [FAM92A_Y226_R222Q] | inactive: 1.15
108 | SNNFIYTTLGV [FAM83B_Y639_K640T_YF] | inactive: 0.744
109 | SCPANYFAFKI [FAM3D_Y65_P60S] | inactive: 1.46
110 | DEYLEHRRIVG [FAM221A_Y20_Y20H] | inactive: 0.69
111 | VPANRYDLLCL [FARSB_Y72] | inactive: 0.819
112 | FQNSLYAPDFS [FAM92A_Y226_R222Q_YF] | inactive: 1.05
113 | FESPRYLQVHI [FANCA_Y488] | inactive: 1.71
114 | SSREGYVSHHN [FAM83B_Y433] | inactive: 0.521
